Results published in PubChem BioAssay AID504832 (National Center for Advancing Translational Sciences (NCATS), 2011).
Hit rate of the full screen: of about 310,000 compounds, about 18,000 (5.8%) were called active. Inconclusive means that the source gave no clear call. Such entries were picked first, then a sample of the others. Calls follow the shape of the dose curve; as a rule, active = well fitted inhibition curve with a large enough effect; inconclusive = small, poorly fitted or top-dose-only effect, or another doubt; inactive = no such curve, though single readings can be large or run the other way. No potency is given beside an inconclusive call; the fits are too rough.

Assay: Primary qHTS for delayed death inhibitors of the malarial parasite plastid, 48 hour incubation
Conditions: P. falciparum luciferase growth in erythrocytes; series mostly up to 28.7 µM
Summary of the method: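 Luciferase-expressing parasites in RBCs, 2% Hct / 0.1% parasitemia final; RPMI 1640 + 0.5% Albumax; 37 C, 5% CO2, one generation; luminescence read-out, lower signal = inhibition.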
Potency is read from the fitted curve at half-maximal effect; tags tell the direction and shape of the fitted curve.

Q: With COc1ccccc1NC(=O)COc1ccc(C(=O)OCC(=O)NC(C)(C)C)cc1OC as the compound, how does the Potency read?
A: inconclusive [inhibitor, single point]

Q: For COc1cccc(-c2nn(C)c3sc(C(=O)NCc4ccccn4)cc23)c1, which Potency is on record?
A: inconclusive [inhibitor, single point]

Q: For O=C(COC(=O)CNS(=O)(=O)c1cccc(F)c1)NCCc1ccccc1, which Potency is on record?
A: inconclusive [inhibitor, partial curve]

Q: With CCOC(=O)c1[nH]c(C)c(C(=O)NC2CCN(C(=O)OCC)CC2)c1C as the compound, how does the Potency read?
A: inconclusive [inhibitor, partial curve, poor fit]

Q: Which Potency does the source give for COC(=O)C1CSc2[nH]c(=O)sc2C1c1ccc(O)c(OC)c1 (stereo not drawn) here?
A: inconclusive [inhibitor, single point]

Q: Which Potency does the source give for COc1ccc(C(=O)COC(=O)C(CCCCN2C(=O)C3C4C=CC(C4)C3C2=O)N2C(=O)C3C4C=CC(C4)C3C2=O)cc1 (stereo not drawn) here?
A: inconclusive [inhibitor, single point]

Q: For O=C(OCC(=O)c1c[nH]c2ccccc12)c1cccc(O)c1, which Potency is on record?
A: inactive

Q: Which Potency does the source give for CCOc1ccc(OCC)c(NC(=O)CSc2nc3cccnc3n2C)c1 here?
A: inconclusive [inhibitor, single point]

Q: Which Potency does the source give for CCC1CSC(Nc2ccc(C(=O)/C=C/c3ccc(OC)c(OC)c3)cc2)=N1 (stereo not drawn) here?
A: inconclusive [inhibitor, single point]

Q: For C/C(=C1\SC(N2CCOCC2)=NC1=O)c1ccc(C)cc1, which Potency is on record?
A: inconclusive [inhibitor, full curve, poor fit]

Q: With CCCS(=O)(=O)c1nc(S(=O)(=O)c2ccc(C)cc2)c(NCc2ccccn2)s1 as the compound, how does the Potency read?
A: inconclusive [inhibitor, partial curve, poor fit]

Q: With O=C(Nc1ccc2c(c1)OCO2)C1CCCN1C(=O)Nc1ccccc1 (stereo not drawn) as the compound, how does the Potency read?
A: inactive

Q: For Oc1c(N=Nc2ccc(F)cc2)ccc2ccccc12, which Potency is on record?
A: inactive

Q: For Fc1cccc(C2CC(c3cccc(Br)c3)Nc3nnnn32)c1 (stereo not drawn), which Potency is on record?
A: inconclusive [inhibitor, single point]

Q: For COc1ccc2[nH]c(=O)c(CN(CC3CCCO3)C(=S)Nc3cccc(C)c3)cc2c1 (stereo not drawn), which Potency is on record?
A: inconclusive [inhibitor, full curve, poor fit]

Q: With O=C1CSC(c2c(F)cccc2Cl)N1c1cccc(F)c1 (stereo not drawn) as the compound, how does the Potency read?
A: inconclusive [inhibitor, full curve, poor fit]

Q: Which Potency does the source give for CCOC(=O)[C@H]1[C@H]2COc3ccc(OC)cc3[C@@H]2N2C(=O)c3ccc(Cl)cc3NC(=O)[C@@]12C here?
A: inconclusive [inhibitor, single point]

Q: With N#C/C(C(=O)N1CCCCC1)=C1/N=C(N)c2ccccc21 as the compound, how does the Potency read?
A: inactive

Q: Which Potency does the source give for CCCNC(=O)Cn1c(=O)/c(=C\c2ccc(-c3cccc([N+](=O)[O-])c3)o2)s/c1=C\C(=O)C(C)(C)C here?
A: active: 1.65 µM

Q: For Cc1ccc(NC(=O)CCCn2c(=O)oc3ccccc32)c(O)c1, which Potency is on record?
A: inconclusive [inhibitor, single point]

Q: Which Potency does the source give for N#CC1=C(N)Oc2cc(N)ccc2C1c1ccc(F)cc1F (stereo not drawn) here?
A: inactive

Q: For CCN(C(=O)COC(=O)/C=C/c1ccccc1)C1CCCCC1, which Potency is on record?
A: inactive

Q: For CC(OC(=O)c1cc(O)c2ccccc2c1O)C(=O)Nc1ccc(C(N)=O)cc1 (stereo not drawn), which Potency is on record?
A: inconclusive [inhibitor, single point]

Q: Which Potency does the source give for Cc1cc(C)c2cc(C#N)c(N3CCCN(C(=O)c4cnccn4)CC3)nc2c1 here?
A: inconclusive [inhibitor, single point]

Q: For COC(=O)c1[nH]c2ccc(C)cc2c1NC(=O)CN1CCN(c2ccccc2)CC1, which Potency is on record?
A: active: 10.4 µM

Q: With CN1C(=O)CSc2ccc(NC(=O)NCc3ccc(F)cc3)cc21 as the compound, how does the Potency read?
A: inconclusive [inhibitor, partial curve, poor fit]

Q: Which Potency does the source give for CC(C)N(Cc1ccccc1)CC(O)COc1ccc(S(=O)(=O)N2CCOCC2)cc1Cl (stereo not drawn) here?
A: inconclusive [inhibitor, partial curve, poor fit]

Q: For COc1ccccc1CCNC(=O)C(=O)NCC1OCCN1S(=O)(=O)c1ccc(C)cc1 (stereo not drawn), which Potency is on record?
A: inconclusive [inhibitor, partial curve, poor fit]

Q: Which Potency does the source give for CCOC(=O)c1c(-c2ccc(C)o2)csc1NC(=S)NC(=O)c1cccs1 here?
A: inconclusive [inhibitor, partial curve, poor fit]

Q: With Oc1cc2c(cc1O)[C@H]1c3ccc(O)c(O)c3OC[C@@]1(O)C2 as the compound, how does the Potency read?
A: active: 3.7 µM

Q: With Cc1cc(C(=O)OCC(=O)Nc2ccc(S(N)(=O)=O)cc2)c2ccccc2n1 as the compound, how does the Potency read?
A: inactive

Q: Which Potency does the source give for CCc1cc(C(=O)NNC(=O)CCl)sc1C here?
A: active: 1.04 µM

Q: For O=C(NC(=S)Nc1ccc2c(c1)OCCO2)c1ccccc1F, which Potency is on record?
A: inconclusive [inhibitor, full curve]

Q: For COc1cc(Br)c(C2CC(=O)Nc3cc(OC)c(OC)cc32)cc1OC (stereo not drawn), which Potency is on record?
A: inconclusive [inhibitor, single point]

Q: With O=C(Nc1nnc(-c2ccc(Cl)cc2)o1)Nc1ccccc1Cl as the compound, how does the Potency read?
A: inconclusive [inhibitor, single point]

Q: For CC(Sc1nc(N2CCOCC2)c2c(c1C#N)CC(C)(C)OC2)C(=O)Nc1ccccc1 (stereo not drawn), which Potency is on record?
A: active: 13.1 µM

Q: Which Potency does the source give for CC(=O)N1CCN(C(=O)CCC(=O)O)CC1 here?
A: inactive

Q: For CCOc1ccc(N=c2cc(-c3ccc(OC)cc3)oc3ccccc23)cc1, which Potency is on record?
A: inconclusive [inhibitor, single point]

Q: Which Potency does the source give for CC(C)Cn1c(N)c(C(=O)COC(=O)/C=C/c2cccs2)c(=O)n(C)c1=O here?
A: inconclusive [inhibitor, single point]

Q: Which Potency does the source give for COc1ccc(-c2cc(C(=O)NNC3=NCCC3)c3c(C)nn(-c4ccccc4)c3n2)cc1 here?
A: inconclusive [inhibitor, partial curve, poor fit]

Q: Which Potency does the source give for c1ccc(-n2nnnc2-c2cnc(-c3cccnc3)nc2-c2cccs2)cc1 here?
A: inconclusive [inhibitor, partial curve, poor fit]

Q: For CC(C)N1CCc2c(sc(NC(=O)c3ccc([N+](=O)[O-])o3)c2C(N)=O)C1, which Potency is on record?
A: active: 13.1 µM

Q: For CCC(C)N(C(=O)COC(=O)CNC(=O)c1ccccc1F)C1CCS(=O)(=O)C1 (stereo not drawn), which Potency is on record?
A: inconclusive [inhibitor, single point]

Q: For Cc1ccc(N2CC(C(=O)Nc3nnc(SCC(=O)N4CCOCC4)s3)CC2=O)cc1 (stereo not drawn), which Potency is on record?
A: inactive

Q: With CC(C)(OC1OC(CO)C(O)C(O)C1O)[C@H]1Oc2ccc3ccc(=O)oc3c2[C@H]1O (stereo partly drawn) as the compound, how does the Potency read?
A: inactive

Q: Which Potency does the source give for CC(C)CNC(=S)N1CCC(Cc2ccccc2)CC1 here?
A: inconclusive [inhibitor, single point]

Q: Which Potency does the source give for CCOC(=O)c1c(C)n(C)c2ccc(OC)c([N+](=O)[O-])c12 here?
A: inactive

Q: With COC(=O)C1C2C=CC3(CN(Cc4cccs4)C(=O)C13)O2 (stereo not drawn) as the compound, how does the Potency read?
A: inconclusive [inhibitor, full curve, poor fit]

Q: Which Potency does the source give for O=C1CSc2ccc(S(=O)(=O)NCc3ccccc3Cl)cc2N1 here?
A: inactive

Q: For Cc1nc2ccc(NC(=O)c3ccc(F)c(S(=O)(=O)N4CCOCC4)c3)cc2s1, which Potency is on record?
A: inactive

Q: For COc1ccccc1NS(=O)(=O)c1cc(C(=O)NCc2ccncc2)ccc1C, which Potency is on record?
A: inconclusive [inhibitor, single point]

Q: With CCOc1ccc(NC(=S)Nc2ccc3nsnc3c2)cc1 as the compound, how does the Potency read?
A: inconclusive [inhibitor, single point]

Q: With Nc1cccnc1Oc1ccccc1F as the compound, how does the Potency read?
A: inactive

Q: For O=C(CSc1nnc(COc2ccc3c(c2)CCCC3)o1)Nc1ccc(F)cc1, which Potency is on record?
A: inactive

Q: For COc1ccc(S(=O)(=O)Nc2cc3c4c(c2)CC(=O)N4CCC3)cc1C, which Potency is on record?
A: inconclusive [inhibitor, single point]

Q: For COc1cc(CCC(=O)Nc2c(C(=O)N3CCN(c4ccccc4)CC3)oc3ccccc23)on1, which Potency is on record?
A: inconclusive [inhibitor, single point]

Q: For COc1ccccc1NC(=O)c1cc(S(=O)(=O)NCc2ccccc2)ccc1F, which Potency is on record?
A: inconclusive [inhibitor, single point]

Q: Which Potency does the source give for CCCC1c2ccsc2CCN1C(=S)NC (stereo not drawn) here?
A: inconclusive [inhibitor, full curve, poor fit]

Q: For COC(=O)c1ccc(-c2ccc(OC)c([C@H]3[C@H]4C=CC[C@@H](C)[C@@H]4C(=O)N3Cc3ccccc3)c2)cc1, which Potency is on record?
A: inconclusive [inhibitor, partial curve, poor fit]

Q: With O=C(c1ccc(CS(=O)c2ccccc2Cl)o1)N1CCN(c2ccccc2)CC1 (stereo not drawn) as the compound, how does the Potency read?
A: inconclusive [inhibitor, single point]

Q: For CC1(C)CC2CC(C)(CN2C(=S)Nc2ccccc2F)C1 (stereo not drawn), which Potency is on record?
A: inactive

Q: With C=CCN(c1ccc(C(=O)Nc2ccc(C)c(C)c2)cc1)S(C)(=O)=O as the compound, how does the Potency read?
A: inactive

Q: With Cc1ccccc1OCCOC(=O)c1cc(S(=O)(=O)N2CCCCC2)ccc1N1CCOCC1 as the compound, how does the Potency read?
A: active: 13.1 µM

Q: Which Potency does the source give for CC1CCN(Cc2c(C(=O)N/N=C/c3cccc(Cl)c3)nnn2-c2nonc2N)CC1 here?
A: inactive

Q: Which Potency does the source give for CCOC(=O)c1c(NC(=O)CSC(=S)N2CCOCC2)sc(C)c1C here?
A: inconclusive [inhibitor, single point]

Q: With COc1ccc(NS(=O)(=O)c2cc(NC(=O)c3sccc3C)ccc2N2CCOCC2)cc1 as the compound, how does the Potency read?
A: active: 10.4 µM

Q: For COC(=O)Cn1c(=NC(=O)CSCC(=O)NC2CCCCC2)sc2cc(OC)ccc21, which Potency is on record?
A: inconclusive [inhibitor, partial curve, poor fit]

Q: With COc1ccc(-n2c(Cc3cccn3C)nnc2SCC(=O)NCc2ccc(F)cc2)cc1 as the compound, how does the Potency read?
A: active: 8.28 µM
